Assay results published in patent publication US20100166772A1, “ANTIGEN-BINDING PROTEINS TARGETING S. AUREUS ORF0657n” (priority 2007, published 2010).

What was measured:
S. aureus strain Becker = assay: Blood CFU (bacteremia) in cannulated rats, Experiment 5; format: in vivo; details: rat, 4 mg mAb ip 1 hour prior to challenge
Method: The cannulated rats studied in Experiment 5 (Table 12) were injected ip with 4 mg monoclonal antibody (CS-D7 or isotype control), or PBS alone, 1 hour prior to challenge. They were then challenged iv with 1−2×10^9 CFU S. aureus strain Becker. Blood was drawn from all rats at the designated time points. At the final time point (32 hours), blood was drawn, and the animals were sacrificed and the catheter removed. Blood was evaluated for bacteria by spreading 50 uL on TSA plates and culturing overnight. The catheters were evaluated for S. aureus by plating on mannitol salt plates overnight.

S. aureus RN4220 = assay: Ex vivo model: passive protection of Balb/c mice with pre-opsonized bacteria; format: in vivo; details: bacteria pre-opsonized with 800 μg IgG, ip, 3 days post challenge
Method: Monoclonal antibodies were evaluated using a method of passive protection. Bacteria were pre-opsonized ex vivo with mAb prior to lethal injection via the intra-peritoneal (ip) route (ex vivo method). […] Bacteria were then pelleted and any unbound mAb removed. […] After challenge, each inoculum was quantitated by plating on TSA to insure that equivalent CFU was given to all groups of mice and that the mAbs had not aggregated the bacteria. Survival was monitored for 3 days post challenge. Since the target antigen must be present on the surface of the bacteria for this procedure to be effective, care was taken to ensure that ORF0657n was expressed on the bacteria prior to opsonization. The challenge strain was S. aureus RN4220, which was passaged 2× in the low iron medium RPMI. The dose of opsonized bacteria injected into each mouse was 1−2×10^9 CFU/mouse.

S. aureus = assay: Opsonophagocytosis activity (OPA) assay with HL60_DMF cells; format: cell-based
Source text: An opsonophagocytosis activity (OPA) assay was developed to evaluate an antibody's ability to opsonophagocytose. The assay measures the ability of antibodies to bind and fix complement (C′) to the bacterial surface, which results in an increase in the level of phagocytosis of these bacteria by granulocytic effecter cells.
ORF0657n is an iron regulated protein on the surface of S. aureus that appears to be involved in heme/Fe acquisition. […] For this assay the strain is iron starved to increase the expression of ORF0657n. This strain also lacks the ability to produce Protein A. Protein A can bind to the Fc portion of any IgG and the presence of this non-specifically bound antibody could interfere in the OPA reaction.
HL60 cells were exposed to dimethylformamide (DMF) for five to six days to induce the cells to differentiate towards a more granulocytic phenotype. Next, 2% C′-sufficient gnotobiotic pig serum was added to the antibody bound cells. Finally, the antibody and C′ exposed cells were then labeled with the fluorescent chemical 5′, 6′-FAM-SE.
After incubation of opsonized, fluorescently-labeled bacteria and unlabeled HL60_DMF cells, the level of phagocytosis was determined by measuring the percentage of HL60_DMF cells containing labeled bacteria by flow cytometry. […]

S. aureus Becker = assay: Combination treatment vancomycin and mAb in cannulated rats, catheter bacteria load; format: in vivo; details: both sets of experiments (Tables 15 and 16)
Method: Cannulated rats were given vancomycin (20 mpk) sub. cu. at 1 hour (1 H) prior to iv challenge with 2−4×10^9 CFU of S. aureus Becker. At 1 H post challenge, the rats were injected with 6 mg/rat of either the mAb CS-D6, an isotype control mAb 20C2HA, or PBS. At 24 hours post challenge, the animals were sacrificed, the jugular vein catheters harvested and evaluated for the bacteria load on the catheter. Evaluation of catheters was performed by placement in selective broth medium, and outgrowth on the Piccolo incubation system. Outgrowth was compared to standard curves of S. aureus growth under the same conditions to calculate the number of CFU on the experimental catheters. In the first set of experiments (Table 15), small numbers of animals were used to test the system. In the second set of experiments (Table 16), larger numbers of rats were used. […] This model was designed to simulate a clinical situation in which a patient is undergoing surgery or other invasive procedure, and getting an empiric or prophylactic antibiotic. In the model, the mAb was injected after bacteria exposure, simulating adjunctive mAb treatment for infection during surgery.

B1: mAb CS-D7: immunoglobulin having two light chains of SEQ ID NO: 1 and two heavy chains of SEQ ID NO: 2; IgG1, kappa (antibody)
heavy: QVQLQESGPGLVKPSETLSLTCTVSGGSIRSSSYYWGWFRQTPGKGLEWLGNVFFSGSAYYNPSLKNRVTISIDTSENQSSLKLTSVTAADTAVYYCARPQAYSHDSSGHSPFDLWGRGTLVTVSSASTKGPSVFPLAPSSKSTSGGTAALGCLVKDYFPEPVTVSWNSGALTSGVHTFPAVLQSSGLYSLSSVVTVPSSSLGTQTYICNVNHKPSNTKVDKRV[human IgG1 Fc left out]
light: EIVMTQSPATLSVSPGERATLSCRASQYVSDNLAWYQQKPGQAPRLLIYGASTRATGVPARFSGSGSGTEFTLTISSLQSEDFAVYYCQQYNNWRPVTFGQGTRLEIKRTVAAPSVFIFPPSDEQLKSGTASVVCLLNNFYPREAKVQWKVDNALQSGNSQESVTEQDSKDSTYSLSSTLTLSKADYEKHKVYACEVTHQGLSSPVTKSFNRGEC
modifications: mAb CS-D7 heavy chain; mAb CS-D7 light chain
notes: IgG1, kappa
blood CFU (FIG. 6) (S. aureus strain Becker): a reduction of blood CFU was demonstrated | % survival (S. aureus RN4220): 25% | Aggregate (survivors/mice) (S. aureus RN4220): 5/20 | opsonic activity compared to isotype control (S. aureus; FIGS. 4 and 5): higher opsonic activity compared to their IgG1 isotype control | quantity of mAb needed to produce a maximal level of phagocytosis (S. aureus; HL60_DMF cells, 2% pig serum complement): 0.06 µg | enhancement of vancomycin activity versus isotype control mAb (S. aureus Becker): significant enhancement of the activity of vancomycin
